Measured values as given in the RNAGym collection of RNA variant scans (doi:10.1073/pnas.2313332121).
Variants at the background level are over-represented here.

B1: TPR 5TU (parent)
chain: GGAUCUUCUCGAUCUAACAAAAAAGACAAAUCUGCCACAAAGCUUGAGAGCAUCUUCGGAUGCAGAGGCGGCAGCCUUCGGUGGCGCGAUAGCGCCAACGUUCUCAACUAUGACACGCAAAACGCGUGCUCCGUUGAAUGGAGUUUAUCAUG

Variants of: B1
Assay: polymerase ribozyme fitness, log enrichment relative to wild type (log ratio); higher = more active; in vitro selection for triplet polymerase activity
Procedure, shortened: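 The heterodimeric triplet polymerase ribozyme's subunits were each mutagenized into PCR-built libraries and transcribed. Every library was selected once, in triplicate, by annealing with a biotinylated primer, the partner subunit and triplets, incubating frozen at −7 °C, gel-excising extended constructs, capturing on streptavidin beads and running RT-PCR. Input and output libraries were Illumina-sequenced, with genotypes kept only at ≥10 input reads and ≥1 read per output. Fitness, from inverse-variance-weighted replicate averages, is the base-2 logarithm of genotype enrichment over wild-type enrichment.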

Variant	polymerase ribozyme fitness (log ratio)
C114G A119G	-2.84
C96U A106U A107C A150U	≤ -4.2
C96A G126A U139G U151C	≤ -4.2
C103A A142G	-2.71
C96A U101C U109A C118A	-1.54
U127G G136A	-2.89
G143A U151G	≤ -4.2
U101C A150G	-1.59
G124U G143U U148G	≤ -4.2
A115U U134C	-1.19
A119C U139C	-3.46
G128U U144C	-3.96
A113C G141C	≤ -4.2
C96U U145A A150U	0.912
C99G C149U	-1.74
C125G A138C	≤ -4.2
C96A G152U	-2.51
C114U U148G	-3.06
C96U A142G	-1.18
C99G G117C A122G	-1.51
U134A U148G	≤ -4.2
C105G U151G	≤ -4.2
A122U C149U	-0.616
U104C U135G	-3.31

Variant	polymerase ribozyme fitness (log ratio)
A107C C118A A120U U139A U145A	≤ -4.2
A98U A115U A121G U127G	-3.32
A142G A147U	-0.49
C96G C125G U130G C132A	≤ -4.2
A106G	0.398
A106U	-0.23
A106C	-0.467
U139C U144A	-3.36
A106G A142C	-0.922
U104G A119C C123U	0.501
C96G A119U	-2.52
C132U U135A	-2.46
U102G C129A	≤ -4.2
C118A U144A	0.0258
G100U U101A U102C G141U A142G	≤ -4.2
C99U A150C	≤ -4.2
C96U U104A C114A C129G U145A	≤ -4.2
C123U	0.225
A98U A142U	-2.98
G124C C125G U148A	≤ -4.2
U127C C131A G152U	-3.91
G100C G136U U146G	≤ -4.2
U102C U148C	-3.19
G117C A120G	0.308

Variant	polymerase ribozyme fitness (log ratio)
A107U A110U C114U	≤ -4.2
U134A G141U	-2.41
C129G U134G	-3.81
A98U A137C	-4.19
G124U U130G A138C A142G	≤ -4.2
C96U C103U	-1.25
A97G A150G	-2.82
A138C	-3.67
A138U	-3.87
A138G	-1.9
A122G G126U U134G U148A	≤ -4.2
C96G U102G	-3.26
C96G C103U	-0.445
U109G G140U	-3.76
C118G G141A	-0.0985
C99A A115U A120G	-2.43
A121U C125U G143C U146C	-3.38
U104G C131A G133C U144A	≤ -4.2
U109G U139C	≤ -4.2
C99U G100C U139C	≤ -4.2
C96A C108A G141C	≤ -4.2
G136U U144G	-3.29
G126A	0.682
G126U	0.31

Variant	polymerase ribozyme fitness (log ratio)
G126C	1.28
U104G G126A	0.207
U102G G124C G133A A137G G143U	≤ -4.2
U135A G143A A147G	≤ -4.2
A106G A110U	-3.42
G100C A110C A150C	≤ -4.2
G112A	-1.96
G112U	-2.77
G112C	-2.68
C103A G117U	-0.489
C96G A107G	≤ -4.2
C114A U144G	-3.71
C96U C105A C116G	-1.79
G133U G136C	≤ -4.2
C96A U127A	-3.79
C96G A142C	-1.82
C96G A122G U139G	0.0535
G126U C132U	-0.717
C105G U134C G140U	-4.18
U111A A120G C129G A138C	≤ -4.2
A107G U127G	≤ -4.2
A107G U127A	≤ -4.2
C96G A98U C103G A113C G143A	≤ -4.2
C116U U134C	-0.00566

Variant	polymerase ribozyme fitness (log ratio)
G126A C132U A142C	≤ -4.2
A107U C132G G143C	≤ -4.2
C96A C125A	-0.718
A110U U127A	-4.06
C99A U148G	≤ -4.2
A110U G140C	≤ -4.2
C99G C131G G133A	≤ -4.2
C96U A98G U111A G152A	≤ -4.2
U109G A120U G140A U145G U151C	≤ -4.2
A115U G141C	-3.37
C105A A137C U139G	≤ -4.2
C118G A150G	-2.14
G124A G133U U139G G140U C149U	≤ -4.2
G100A U102G	≤ -4.2
C108G C131G U139C U146G	≤ -4.2
C103A U148C	≤ -4.2
G112A U139A G140U	≤ -4.2
A122C C149U	-1.16
A97U G141C U146G	-2.08
C96A C99G A115U U139A	≤ -4.2
A106G A115U	-1.05
C125A A147U	-0.189
C96U U151G	-4.05
G124C C149G	≤ -4.2

Variant	polymerase ribozyme fitness (log ratio)
U101C C105U G136U G140C G152A	≤ -4.2
C96G A97C C125G C129U	≤ -4.2
A97G C123G C131G	-2.72
C96A U127C A142C	≤ -4.2
A97U C99G	-1.6
C116U C118A U139G	0.554
C103G U111C C125A	≤ -4.2
C99U G136U	-2.25
C132U G152U	-2.75
G133C U134A	≤ -4.2
A97G G152A	-3.19
C96U C105U	0.67
A119G U146A	-0.399
A115C A142G A150U	-3.13
G141A	0.689
G141U	1.61
G141C	-0.0848
A115G G141A	-0.426
C108G A122C	≤ -4.2
A97G C131A	-2.32
U111C G117C	≤ -4.2
G133A U134G	-2.81
C96U U101G G124C	-0.75
U104G U135C G143C	-3.79

Variant	polymerase ribozyme fitness (log ratio)
A137G U144A	-3.01
A122U G141C	0.115
A142G U146C	-3.25
G124A C125G	0.356
A98G A121G	-1.63
A97U C116U	-0.695
C96U U148A	-3.33
C96A C132G	-3.72
U101A U109G C118U C125G A138G G141A	≤ -4.2
A98U U104A C105U C125G	≤ -4.2
C108G G126A A137U	≤ -4.2
C118U G140U	-3.11
A119U U144A	-0.171
U145G U151G	-4.07
C116U A119U	-0.298
C116U A119G	-0.704
C108U C132A U139A	≤ -4.2
C105G A119G U151G	≤ -4.2
G128U U130C A138G	≤ -4.2
U127G A137U	-4.19
U102C A120U G140C	-3.56
A113U G124U	-2.07
U135A G140C G143A	≤ -4.2
A107G U127C A138C	≤ -4.2

Variant	polymerase ribozyme fitness (log ratio)
C96U G100A G128C	≤ -4.2
C114U C131U	-1.64
C103G G128C	≤ -4.2
C99G G124A G141U	-0.199
A97U G124U	-1.05
U139A U144A	-4.15
A97G C123U	0.215
C99U C103A G128A G136U U148G	≤ -4.2
A110U U111G A115C A142U	≤ -4.2
A97G C99G	-0.579
C96U A113G G136C	-3.93
U111A G140A	≤ -4.2
A122G C125A U134G	-2.92
C99A U101G	-3.16
A113G C116A G117C	≤ -4.2
C99A A110U G124A U139C	≤ -4.2
A110G C129U U144C	≤ -4.2
A97G C116U G133U	≤ -4.2
A121C C125U G143U	-2.41
G124A U148G	-3.69
U127A A150C	≤ -4.2
U134A A142C	-2.66
C96G U109G G124C	-2.62
